The record followed here is publication PMC12136788.

Sequences and labels used below:
T1: UNK ZnF1-3 (human, UniProt Q9C0B0 31-174)
T1 sequence: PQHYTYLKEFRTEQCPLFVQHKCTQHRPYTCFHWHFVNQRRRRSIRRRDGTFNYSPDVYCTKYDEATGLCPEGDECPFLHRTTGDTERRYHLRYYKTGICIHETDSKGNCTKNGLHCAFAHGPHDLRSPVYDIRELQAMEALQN

B1: chr3:150289932:150289933:+_ENSG00000144895_ENST00000460851|hu_hu|hu_hu_hu_mus_False|58_58 (ssRNA)
RNA: GGGAGUUCUACAGUCCGACGAUCCUUGUAGUUUUUAACAUCCCAUACUUCCAUUUGUCCUCGAAGAUUUCCAAAUCCAGCUAAUACUAAUAUAUGUCCAUGAGGGCUAUAGAAGGCUGCGUUGCGAGGACCAGUCCCAAAGUCCAACAGAGGAUUGAGCAUCA
B2: chr1:163112212:163112213:-_ENSG00000143248_ENST00000313961|hu_hu|hu_hu_hu_mus_False|38_88 (ssRNA)
RNA: GGGAGUUCUACAGUCCGACGAUCUUUUAUUAUCAGUAAGAGUGAGUCACAUAGUACGCAAAGUAUUGGAUACAAUAAUCAGGAAACAAACACUAUUUUUCUUGAAUUUAAAACUUUAUGAGCGAAGUGCUGGCACAGGACUUACAACAGAGGAUUGAGCAUCA
B3: 30351319_30351439_1352_3pUTR_ENSMUSG00000022533_ENSMUST00000100013|mouse|control|control (ssRNA)
RNA: GGGAGUUCUACAGUCCGACGAUCCUAACUACUAUGGCUUUCACAAGUUCUCCAGUGUAGAAACGGGUCUGAAUAACAGUCGUCCCACAAAACAAAGUGUGCCGCUUGUGUGUCUCUGGGCUGUACUGCUCCUCCCCCAUUCCUCAACAGAGGAUUGAGCAUCA
B4: chr13:55803104:55803105:+_ENSMUSG00000045767_ENSMUST00000057844|mus_mus|FALSE|FALSE (ssRNA)
RNA: GGGAGUUCUACAGUCCGACGAUCAGCACAGCACCACUGAGUACAUGUGCGGCAAGCGGAGGGAAGGGGAUGCGUGUGGGAAGGGCAAGAAGAAAUGACAAGGUACAAAGCCAGGAAUGAAAUCAAACUCAAAAGGAUGCCGUGCAACAGAGGAUUGAGCAUCA
B5: 144434962_144435082_407_5pUTR_ENSG00000153147_ENST00000283131|human|control|control (ssRNA)
RNA: GGGAGUUCUACAGUCCGACGAUCGACAUGAUGUUCCGUCUGCGUCACCCGCUGCUGCCAGAGGCCCGAGUCCGGCGGGGAUGGACGGGGAGGCCUAGGCCUGGAUGCUACGUCGCAAUAAACUGGUGGAGGAGCGAGACUCCCCAACAGAGGAUUGAGCAUCA
B6: chr19:16212804:16212805:+_ENSG00000167460_ENST00000300933|hu_mus|hu_hu_hu_mus_False|28_68 (ssRNA)
RNA: GGGAGUUCUACAGUCCGACGAUCAACAAUUCUGGAGUGAAGGAAAGAUGUAACAUGGAACAGCAUUCCAUCUAUUACAGAAGGCACAUGGGCAACAAUGAUCACCCCCCAAGCAUUGCUUGGAAUGCUUAAAGACAAUCUGUUCAACAGAGGAUUGAGCAUCA
B7: chr6:117881578:117881579:-_ENSG00000047932_ENST00000052569|hu_hu|FALSE|FALSE (ssRNA)
RNA: GGGAGUUCUACAGUCCGACGAUCUUUAAUGUAGAAGAUGCCAUCUUUAUUUACAGGCUAAUAAAAAAAUAUUAAACUCAACUAGAUAUAAUACAUUAUCAUAAAUGCAAUAGAUUUGAGGCCAACCAUAAGUGUAAGACUGGACAACAGAGGAUUGAGCAUCA
B8: chr14:66974463:66974464:+_ENSMUSG00000022044_ENSMUST00000074523|mus_hu|mus_mus_mus_hu_False|1_48 (ssRNA)
RNA: GGGAGUUCUACAGUCCGACGAUCUUGUAGGACGACUUAUUCAGGGGAUCGGCCAGGAAGCAGGAGCAGAACAAGGACACCAGCGGGAGUUCCUUCAUCUUCUCUUUGUAGGCAGCAAGGGUCAUGUUUCUGGGAUCCUGGUGGCAACAGAGGAUUGAGCAUCA
B9: chr12:36856662:36856663:-_ENSMUSG00000020547_ENSMUST00000020856|mus_hu|FALSE|FALSE (ssRNA)
RNA: GGGAGUUCUACAGUCCGACGAUCAAGCAUACUGCCAGCCACCAGGAUAUCGAAGAGUGUGUCUGCAUAGCGACGAUAAUCUAAUCUUGAGCCUGUAGAGUCCAGAAAUUUGGCUACAGCUUCAAGGUCAUCACCAGCCUCAUUCAACAGAGGAUUGAGCAUCA
B10: chr22:24237240:24237241:+_ENSG00000240972_ENST00000215754|hu_hu|FALSE|FALSE (ssRNA)
RNA: GGGAGUUCUACAGUCCGACGAUCCUCUUAGGCGAAGGUGGAGUUGUUCCAGCCCACAUUGGCCGCGUUCAUGUCGUAAUAGUUGAUGUAGACCCUGUCCGGGCUGAUGCGCAGGCGCUCGGCCAGCAGGCCGCACAGCAGCUUCAACAGAGGAUUGAGCAUCA
B11: chr9:119461815:119461816:+_ENSG00000119401_ENST00000373983|hu_hu|motif|central (ssRNA)
RNA: GGGAGUUCUACAGUCCGACGAUCCUUAGGAGUUAGGGCUAUGCCCACCGGACAGGUAAGUCCCUCUCGAAUAAGGACACGGUAGCCCCCACCCUUAGGAAAAUGGAGAAUUUCCUUGCGACUACUGUCAGCCACGAUGAGAUCCAACAGAGGAUUGAGCAUCA
B12: 90390320_90390440_12308_CDS_ENSG00000112159_ENST00000369393|human|control|control (ssRNA)
RNA: GGGAGUUCUACAGUCCGACGAUCAAGGCCCUCCACAAGGCGAGGCAGGGGGCUCUCCUUCAUGAACGUCAGGCACAUCUUCCUCAUGCGUUUCCUGAGCUUUGGCAAGCGACGCAGAAGCUCCCCUUCCAAGCCGGAAGGAGCCAACAGAGGAUUGAGCAUCA
B13: chr2:169020305:169020306:-_ENSG00000198648_ENST00000355999|hu_hu|FALSE|FALSE (ssRNA)
RNA: GGGAGUUCUACAGUCCGACGAUCCUGACCGUUUCUGUGUAGAUAGUCUAAGCCUUCCAAAACCUCUUUAAGAAUUGUUGCUAUUAUUGCCUCUUCCAGAACUCCAUUCUUGUGUUCUCCUCGGUUGACAAUGUAUUUUAUGAUCAACAGAGGAUUGAGCAUCA
B14: chr22:32879901:32879902:+_ENSG00000100225_ENST00000397426|hu_mus|hu_hu_hu_mus_False|28_28 (ssRNA)
RNA: GGGAGUUCUACAGUCCGACGAUCCUCUUCCAUACUCAUGGCAUCCUGAAUUGACUCAGCUUCAACAUUUUGACUAGGCCCUUCCAUACUGUCAUCAGUCCAGGCAUCAGACUGGGCGGCCUGUCCUUGGGAUGAAUCAGUCCCCAACAGAGGAUUGAGCAUCA
B15: chr1:109605286:109605287:-_ENSG00000197780_ENST00000461096|hu_mus|hu_hu_hu_mus_True|8_58 (ssRNA)
RNA: GGGAGUUCUACAGUCCGACGAUCAAGUUUCAGAGUAACAUUCAGUAACCUCUUUAAAUGCAAUUAUCCUUAUUAUAAACUAAGGGCAAUAAUAAUUUAAUACCGUAAGUGAACUACACACAAAGCCGUGUAUUCAGAAAUGGUCAACAGAGGAUUGAGCAUCA
B16: chr3:196089228:196089229:-_ENSG00000163960_ENST00000296328|hu_mus|motif|central (ssRNA)
RNA: GGGAGUUCUACAGUCCGACGAUCUUCCCUUUUUCCAUCUGGGUACCGCAGCAUCAGCUGUGCUUUUGGUCCAUUUACAUCGGUCCCCUCCACUAUUCCAUCUGACUUUUCAGGUGACAUCUCCAAGACCUCAGAAUCCAUGGACAACAGAGGAUUGAGCAUCA
B17: 44187758_44190831_1501_CDS_ENSG00000138095_ENST00000260665|human|control|control (ssRNA)
RNA: GGGAGUUCUACAGUCCGACGAUCCAGACAUCCAUUUUCCUGCAAAAUGGCUCGUGCUGAGUUUACACUAUCAAAGCAUGGAAUCACAUAAUCUGUAUAUGUUUCCUGAUCAGGAUGUACUCCCAAUUCUUGCAUUCCUUUGAGCAACAGAGGAUUGAGCAUCA
B18: chr6:13037117:13037118:+_ENSMUSG00000029571_ENSMUST00000031556|mus_mus|motif|central (ssRNA)
RNA: GGGAGUUCUACAGUCCGACGAUCGCGUGUACUGUACUGUUUGUGAAUGGGCAUCGACACAUUUGUAUGUGUGUGUACACGGUAUAUGUGGUAUUGUACUGUCCGUGAACGGUCAUCCGAGAAGAGUGCCAGUUCUCUCCGCCUCAACAGAGGAUUGAGCAUCA
B19: chr7:54825262:54825263:-_ENSG00000132432_ENST00000352861|hu_hu|hu_hu_hu_mus_False|8_8 (ssRNA)
RNA: GGGAGUUCUACAGUCCGACGAUCCUGCCGGCUGGGCUCCACAAACUGCAUUACCUGAUCCAUGUUUGUUGGAUGGCGGAUUGAGAGCGUAGAGACACGUAGCUCAGGAGAGAACCGAGCCCAACGGCACCGGAACCUGGCAACCAACAGAGGAUUGAGCAUCA
B20: 134633473_134633593_1156_CDS_ENSMUSG00000042423_ENSMUST00000048896|mouse|control|control (ssRNA)
RNA: GGGAGUUCUACAGUCCGACGAUCGGCAGCAGCCAUGGCCCCUGGUCCAGUCAACUCCUCACCUGCCUCAUAGAAGCGUGGUGGCCUGGCCAGGCGUGGGGGCCCUGCCAACCAGGUUGGCUCUGGGAAGCCUGCACAGCGCUCCAACAGAGGAUUGAGCAUCA
B21: chr7:135612270:135612271:-_ENSG00000105887_ENST00000393085|hu_hu|motif|central (ssRNA)
RNA: GGGAGUUCUACAGUCCGACGAUCUUUUCUGAGAUGUUAAGUAUUACUUCAGUGGAGAACAAAACUUACUUAACCUUUCGCGGAUGCAUGUAGUACCAGAAAGCAAACAUGGUUUUAGCUUCCUUUACUCAAAAUAUGAACAUUCAACAGAGGAUUGAGCAUCA
B22: chr1:46159212:46159213:+_ENSG00000159596_ENST00000372025|hu_mus|hu_hu_hu_mus_True|98_98 (ssRNA)
RNA: GGGAGUUCUACAGUCCGACGAUCUCUGAUCCCUCCCAAGAAAGAUAGGAAACCGGCUCCAUAAGCCAUCUGAGUGAAAGCUAGGACGGGGAUAUAAGACUUUGUUAUUACCAUGAGAAGUGGGGGAGCAGUAAAGGGGAUUAACAACAGAGGAUUGAGCAUCA

This is one part of the list.

The experiment deals with T1, UNK ZnF1-3. Nature of the experiment: nsRBNS (natural sequence RNA bind-n-seq); RBNS binding buffer (assumed for nsRBNS): 25 mM Tris pH 7.5, 150 mM KCl, 3 mM MgCl2, 0.01% Triton X-100, 500 ug/ml BSA, 20 U/ml SUPERase-In, 4 C; UNK is unkempt and MSI1 is Musashi-1; names of the RNAs are library labels; protein concentration not given here; high values mean tight binding.
The molecule B1 returned a binding signal of 1.21 enrichment R. The molecule B2 displayed a binding signal of 1.36 enrichment R. In turn, B3 registered a binding signal of 0.749 enrichment R. In the case of B4, the binding signal worked out at 2 enrichment R.

With B5, the binding signal worked out at 1.12 enrichment R. To B6 belongs 0.962 enrichment R; to B7, 1.72 enrichment R; to B8, 1.72 enrichment R. As for B9, the figure is 1.14 enrichment R. Molecule B10 registered a binding signal of 0.573 enrichment R.

In the case of B11, the binding signal was 0.558 enrichment R. Take B12: the binding signal is 0.772 enrichment R. As for B13, the figure is 0.518 enrichment R; as for B14, 0.98 enrichment R; as for B15, 0.626 enrichment R. To B16 belongs 0.724 enrichment R. In turn, B17 displayed a binding signal of 0.697 enrichment R. As to B18, the binding signal was determined as 0.746 enrichment R. As for B19, the figure is 1.59 enrichment R; as for B20, 0.965 enrichment R; as for B21, 0.65 enrichment R. To B22 belongs 1.26 enrichment R.
